From the supplement of paper PMC10126150
Values marked as one replicate rest on one cluster of the flow cell; about a third of the high ones do not repeat.
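Note: ATP exposure 15 min at 22 °C before imaging.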

Each sequence was assayed on ATP (assay: switch fluorescence ratio, 500 uM ATP over buffer (Cy3 cluster intensity, sum of 5 cycles each) (fold (ratio)); higher = stronger signal-on switching upon ATP binding; sequences stand for … in TCGTCGGCAGCGTCAGATGTGTATAAGAGACAGTTTTTTTTTTTTTTTTTTTTTTTTT…TC). Conditions: aptamer strand: ATP DNA aptamer (quencher-CACCTGGGGGAGTATTGCGGAGGAAGG + anchor), 100 nM annealed; ATP concentration: 500 uM; one replicate.
How it was run: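 Five buffer/ATP imaging cycles were run on Cy3-labelled switching-strand clusters on a modified Illumina MiSeq flow-cell, with NaOH stripping and re-annealing between cycles. In each cycle, clusters annealed to 100 nM quencher-labelled ATP aptamer were imaged in selection buffer, then after 15 min with 500 uM ATP at 22 °C. Per cluster, the fluorescence ratio is summed target-cycle over summed buffer-cycle Cy3 intensity, averaged per switch-domain sequence. Only clusters within 100-1000 RFU were kept.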
AGACTTGAGA showed a switch fluorescence ratio of 1. AGACTTGATG gave a switch fluorescence ratio of 0.945. With AGACTTTGGT the switch fluorescence ratio was 1.01. Sequence AGAGAACGTG has a switch fluorescence ratio of 0.977. AGAGAATAGT was tested, and the switch fluorescence ratio was 0.929. In the case of AGAGAATCAA, the switch fluorescence ratio is reported as 1.02. AGAGAGATGT showed a switch fluorescence ratio of 1.01. Sequence AGAGAGTCCA has a switch fluorescence ratio of 0.993. Work on AGAGAGTGTG yielded a switch fluorescence ratio of 1.01. AGAGCAAACA was tested, and the switch fluorescence ratio was 1.13. AGAGCAGACG showed a switch fluorescence ratio of 1.01. Sequence AGAGCGTATG has a switch fluorescence ratio of 1.01. AGAGCTGAAG showed a switch fluorescence ratio of 0.991. AGAGCTGATG gave a switch fluorescence ratio of 0.984. AGAGCTGTGA gave a switch fluorescence ratio of 1. Sequence AGAGCTTCTT has a switch fluorescence ratio of 1.02. AGAGCTTGAA showed a switch fluorescence ratio of 0.994. AGAGCTTGTG showed a switch fluorescence ratio of 0.97. Sequence AGAGGAGCAT has a switch fluorescence ratio of 1.07. In the case of AGAGGAGGTT, the switch fluorescence ratio is reported as 0.967. AGAGGGAGTG was tested, and the switch fluorescence ratio was 1.01. Sequence AGAGGGTAAT has a switch fluorescence ratio of 1.08. Sequence AGAGGGTGTA has a switch fluorescence ratio of 1.02. With AGAGGGTGTT the switch fluorescence ratio was 1.07. AGAGGTATTG showed a switch fluorescence ratio of 0.98. Sequence AGAGGTCTAG has a switch fluorescence ratio of 1. Work on AGAGGTTAAC yielded a switch fluorescence ratio of 1.03. AGAGTAAACG gave a switch fluorescence ratio of 0.959. For AGAGTAGGTG, the switch fluorescence ratio was 0.983. AGAGTCACTC gave a switch fluorescence ratio of 1.03. For AGAGTCAGGG, the switch fluorescence ratio was 0.989. For AGAGTCTATT, the switch fluorescence ratio was 1.03. AGAGTTAGGA showed a switch fluorescence ratio of 0.99. For AGAGTTCATT, the switch fluorescence ratio was 1.01. In the case of AGAGTTCTGA, the switch fluorescence ratio is reported as 1.02. In the case of AGATAACACA, the switch fluorescence ratio is reported as 1.02. With AGATAACCC the switch fluorescence ratio was 1.04. AGATAACGGA gave a switch fluorescence ratio of 1.04. Sequence AGATAAGAAG has a switch fluorescence ratio of 0.983. Work on AGATAAGTTG yielded a switch fluorescence ratio of 0.945. With AGATACAGAC the switch fluorescence ratio was 1.12. In the case of AGATACGAGC, the switch fluorescence ratio is reported as 1.05. With AGATAGTTCG the switch fluorescence ratio was 0.985. For AGATATAAGG, the switch fluorescence ratio was 0.977. Sequence AGATATAGTA has a switch fluorescence ratio of 1.02. With AGATATGCAT the switch fluorescence ratio was 0.997. AGATATGCGC showed a switch fluorescence ratio of 0.997. AGATCACCAT showed a switch fluorescence ratio of 1.08. AGATCCTGGG showed a switch fluorescence ratio of 0.978. Sequence AGATCCTGGT has a switch fluorescence ratio of 1.05. With AGATCGATTA the switch fluorescence ratio was 1.01. AGATCGTCGT showed a switch fluorescence ratio of 1.03. Work on AGATCTGTTG yielded a switch fluorescence ratio of 0.994. Sequence AGATGAACAG has a switch fluorescence ratio of 0.993. AGATGATAAT was tested, and the switch fluorescence ratio was 0.992. For AGATGCGTGC, the switch fluorescence ratio was 1.01. Sequence AGATGGCAGC has a switch fluorescence ratio of 0.995. For AGATGTAAAA, the switch fluorescence ratio was 1.04. Sequence AGATTACACG has a switch fluorescence ratio of 1.01. AGATTACACT was tested, and the switch fluorescence ratio was 0.996. Work on AGATTATAAA yielded a switch fluorescence ratio of 1.01. AGATTATGCT gave a switch fluorescence ratio of 1.02. In the case of AGATTCCCCT, the switch fluorescence ratio is reported as 1.1. AGATTCTTCT gave a switch fluorescence ratio of 0.926. AGATTTCTGC showed a switch fluorescence ratio of 0.971. AGCAAAAGGG showed a switch fluorescence ratio of 1.01. In the case of AGCAACATTC, the switch fluorescence ratio is reported as 1.28. With AGCAAGACAA the switch fluorescence ratio was 1.82. Work on AGCAAGACGC yielded a switch fluorescence ratio of 3.4. AGCAAGTGCG was tested, and the switch fluorescence ratio was 1.02. AGCAAGTTCG showed a switch fluorescence ratio of 1.01. AGCAATAGGA showed a switch fluorescence ratio of 2.85. Work on AGCAATTTGA yielded a switch fluorescence ratio of 1.12. AGCACACG was tested, and the switch fluorescence ratio was 0.981. Work on AGCACCTGCA yielded a switch fluorescence ratio of 1.06. For AGCACTCGCT, the switch fluorescence ratio was 0.984. With AGCACTTATT the switch fluorescence ratio was 1.03. For AGCAGAAA, the switch fluorescence ratio was 1.19. In the case of AGCAGAAAGC, the switch fluorescence ratio is reported as 1.05. Sequence AGCAGACGTT has a switch fluorescence ratio of 1.01. In the case of AGCAGATTCA, the switch fluorescence ratio is reported as 0.956. In the case of AGCAGATTCT, the switch fluorescence ratio is reported as 0.979. Sequence AGCAGATTGG has a switch fluorescence ratio of 0.99. With AGCAGATTGT the switch fluorescence ratio was 0.999. Sequence AGCAGCGTCT has a switch fluorescence ratio of 0.81.
